# From publication PMC12040169 (PLOS Biology, 2025)
# The list shows a part of the results.
# Tested on: T1, C. trachomatis L2/434/Bu expressing GFP (CTL2-GFP)
# T1 construct: L2/434/Bu GFP intracellular growth in HeLa cells
# Design: species or system HeLa; C. trachomatis total inclusion area by high-content imaging, normalised to DMSO
# Details: total inclusion area; 28.5 h, 10 µM; inhibitor
# In short: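 Host cell viability was gauged from Hoechst-stained nuclei counts, while chlamydial growth was taken from total inclusion area and inclusion number per well. Cells were fixed and imaged by high-content microscopy once bulk GFP and resorufin fluorescence had been measured.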
row,Compound,% of control remaining
1,COc1cccc(/C=C/C2=NN(c3cccc(F)c3)C(c3cccc(OC)c3OC)C2)c1OC (stereo not shown) [CBK260983],86.2486
2,COc1cc2c(cc1OC)C(C)N(S(=O)(=O)c1cn(C)cn1)CC2 (stereo not shown) [CBK057314],99.0739
3,COCCN(Cc1cnn(C)c1)C(=O)c1nc2ccccn2c1F [CBK306892],99.0146
4,CN1C(=O)CC2(C1=O)C(=O)N(Cc1ccc3ccccc3n1)c1ccc(Cl)cc12 (stereo not shown) [CBK075494],95.3541
5,CC(C)c1ccc(NC(=O)CSc2nnc(Cc3cccc4ccccc34)o2)cc1 [CBK267371],99.5993
6,COCc1cc(C[C@@H]2C[C@H](NC(=O)C(C)(C)C)C2(C)C)no1 [CBK289251],103.711
7,O=[N+]([O-])c1ccc(CN2CCC(N3CCN(CCO)CC3)CC2)cc1 [CBK264621G],106.917
8,CC(O)CNc1nccnc1-c1ccc(S(C)(=O)=O)cc1 (stereo not shown) [CBK037669],94.507
9,CN1CC(=O)N(CC(=O)N2CC=C(c3ccccc3)CC2)c2ccccc2C1=O [CBK294433],104.769
10,O=C(O)c1cc(C(=O)O)cc(N2C(=O)C3C4C=CC(C4)C3C2=O)c1 (stereo not shown) [CBK261193],94.0773
11,CCOC(=O)c1c(NS(=O)(=O)Cc2ccccc2[N+](=O)[O-])sc2c1CCCC2 [CBK004651],90.9907
12,COc1cc(CN2CCN(c3ccccn3)CC2)ccc1O [CBK261537],89.3762
13,O=C(Nc1cccnc1)c1cnc(-c2ccc(Cl)cc2)c(-c2cccnc2)c1 [CBK037568],69.1714
14,O=C(C1CCC1)N1CCC(c2nnc(-c3ccsc3)o2)CC1 [CBK283405],101.102
15,CC1(C)C=Cc2cc(/C(N)=N/O)ccc2O1 [CBK006095],57.8478
16,CCc1ccc(Nc2nc(N)nc(CN3CCN(c4ccccn4)CC3)n2)cc1 [CBK270064],108.082
17,CN1CC(c2ccccc2)C2(CCNCC2)C1 (stereo not shown) [CBK282225],88.9601
18,COc1cccc(OC)c1OCCN1CCC(CNC(=O)Nc2cccc(C(F)(F)F)c2)CC1 [CBK051512T],98.5699
19,O=C(c1cccnc1)N1CCN(S(=O)(=O)c2ccccc2[N+](=O)[O-])CC1 [CBK264227],128.819
20,CCCCOc1ccc(-c2nnn(C(C)C(=O)O)n2)cc1 (stereo not shown) [CBK070540],54.6935
21,Cc1ccc(NC(=O)NC(=O)C2CCN(S(C)(=O)=O)CC2)cc1 [CBK034863],95.586
22,COc1ccc(OC)c(NC(=O)c2ccc3nccnc3c2)c1 [CBK268997],84.2495
